# Data taken from article PMC4242493.
# This is one part of the list. The list includes weakly bound sequences.
# Target: MaxL homodimer (UniProt P61244)
# Assay: universal protein-binding microarray (PBM)
# Conditions: PBS-based mixture, 10 nM His-tagged protein dimer, 2% milk, 200 ng/uL BSA, 50 ng/uL salmon testes DNA, 0.02% TX-100; detection with Alexa 488 anti-His …; high values mean tight binding; most listed sequences are background and not binding sites; double strand, one strand shown
# Chain of UniProt P61244 (P61244 whole entry): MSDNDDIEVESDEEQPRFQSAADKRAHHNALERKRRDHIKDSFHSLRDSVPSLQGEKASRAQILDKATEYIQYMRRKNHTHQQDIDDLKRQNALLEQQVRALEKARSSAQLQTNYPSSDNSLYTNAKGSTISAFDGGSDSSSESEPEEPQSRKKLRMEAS
row,Sequence,binding signal (normalized occupancy)
1,GCGATATA,0.0746
2,GCTGCTGA,0.0725
3,ACGGTGCT,0.0757
4,AATTCATC,0.0791
5,GCCCTAAA,0.0737
6,TCGTATAA,0.0765
7,AGCTAGTC,0.0711
8,ATCGGGGA,0.0754
9,AGTTGCAT,0.0779
10,CTCGTTCC,0.0761
11,CGCAGAAC,0.0697
12,AGAATCAG,0.0794
13,TGTCGAAA,0.0778
14,AGCCTATA,0.0794
15,ATGTTGAC,0.085
16,AATATATT,0.0791
17,ATAATACA,0.0803
18,CTTGCCCA,0.0706
19,ACGAGAAG,0.0756
20,ACATTTTG,0.0837
21,AACTACGA,0.0728
22,AAGGAGCA,0.076
23,GATCACTA,0.0731
24,ATGTCGGC,0.0776
25,GTACCTGA,0.0735

row,Sequence,binding signal (normalized occupancy)
1,ATAACATG,0.0981
2,GATCCTAA,0.0791
3,CTTCTGCC,0.0759
4,AAAGAACG,0.0757
5,ATGTCCAA,0.0758
6,ATCGCAGA,0.0768
7,ACAAGGAG,0.0757
8,CGTATTAA,0.0762
9,TCGTCACA,0.0793
10,GCAGACCA,0.0734
11,ACGTGGAG,0.0976
12,TCCAACCA,0.0763
13,GATACGAA,0.0761
14,CGCGTCAC,0.0789
15,CCTCAGGA,0.0751
16,CATACAAG,0.0851
17,CCTGAATA,0.0736
18,AGTAATCC,0.0767
19,TCTCTCCA,0.0821
20,AAGAGCTA,0.0682
21,AGTGGAAA,0.0836
22,ACAACTCG,0.0787
23,GAAACGGC,0.0677
24,AAACCCTA,0.0744
25,CATTCACC,0.0836

row,Sequence,binding signal (normalized occupancy)
1,ACGAGATC,0.0779
2,AGAGGACC,0.0728
3,TGTTCGAA,0.0694
4,AACTATGA,0.0783
5,AAACAGCG,0.072
6,AAAAGGTT,0.071
7,CAACTTTC,0.0746
8,ATACTCAA,0.0777
9,TCGCGAGA,0.068
10,ATATCTTC,0.0807
11,AGAAGTAG,0.0755
12,AGCCCCAT,0.0767
13,AGGAAGAG,0.0724
14,AATCCCCT,0.0758
15,CAGAGATA,0.0737
16,AGTCAACC,0.0747
17,GGGTTCAC,0.0748
18,GAGACCGA,0.0733
19,ATCGGCAC,0.0716
20,CCTACCAG,0.0689
21,ACTCACGC,0.0832
22,TTCTACAA,0.0779
23,GGTCAGAC,0.0735
24,ATACTACC,0.0814
25,ACATCTCC,0.0802

row,Sequence,binding signal (normalized occupancy)
1,AACCACCT,0.0839
2,ACAGTGGC,0.07
3,ACCCGCAC,0.083
4,AGAGGCTC,0.0653
5,CGCGGGTA,0.0791
6,ATGAGAAC,0.0777
7,AAGACGGT,0.0701
8,ATGCTATA,0.0889
9,ATCGTTGC,0.0737
10,AATAGATA,0.08
11,GGCCTCGA,0.0787
12,ATCCTAAA,0.0762
13,CACTACCA,0.0779
14,AATGTTGC,0.0781
15,AAGGTGGG,0.0714
16,GCGGAATA,0.075
17,TCCTACGA,0.0718
18,AAAAGCTG,0.0641
19,ATGAGAGA,0.0898
20,CCGGTCAC,0.0741
21,GTTAGACA,0.0808
22,ACTACAAA,0.0783
23,CTATCGTA,0.077
24,GTGCTAAA,0.0773
25,CTAGAAGA,0.0731

row,Sequence,binding signal (normalized occupancy)
1,CTACAACC,0.0791
2,CCAGTTAG,0.0695
3,CTGGGCCC,0.0669
4,ATGTCTAG,0.0754
5,CCTAAACC,0.0739
6,AAGCCGGG,0.066
7,AAGCAAGC,0.0685
8,TCCTATAA,0.0807
9,CGCACTTA,0.0747
10,GTATCTTA,0.0758
11,CAGGACGG,0.0678
12,AGGGCCAC,0.0691
13,CAGAAGCG,0.0708
14,GGCGGGCA,0.0691
15,CTATGAGC,0.0756
16,CCGTCCCC,0.0746
17,GCACACAA,0.0771
18,CAGCGCTG,0.0703
19,AGGTGGGA,0.0749
20,GCCGTAGA,0.0724
21,GGTATGAC,0.0847
22,CAGATGAA,0.0778
23,TCCAAAGA,0.0685
24,AACCGGAA,0.0675
25,ACACTGGA,0.0764

row,Sequence,binding signal (normalized occupancy)
1,GCATATCA,0.0789
2,GATAAATC,0.0742
3,ATATACGC,0.08
4,ATGAACCG,0.0717
5,AGTCAGAG,0.0732
6,CATGACAA,0.0842
7,CGAATAGA,0.0736
8,CGGGCTCA,0.0689
9,GACGTACA,0.0745
10,AATCGATG,0.0715
11,CAACGGCC,0.069
12,AAACAGGG,0.0718
13,GCGCGAGC,0.0687
14,CTTCGTTC,0.0699
15,ACTGCCTG,0.0673
16,CAGTCCTA,0.0753
17,GAGACCGC,0.0679
18,GTAGTTCA,0.0779
19,AAGTGGGG,0.0764
20,CTCCAAAG,0.0693
21,CGAGAGGC,0.0708
22,GATAGTCA,0.0795
23,CCTAAGCG,0.0698
24,AAACGCGG,0.0761
25,GCAGGGAC,0.0705

row,Sequence,binding signal (normalized occupancy)
1,TGTGTAAA,0.0789
2,CAGCAGTC,0.0698
3,CAGAATTA,0.0699
4,AGGCAGTG,0.0739
5,AATCGTCG,0.0717
6,ACTATGTA,0.0762
7,CGAGTTCC,0.0757
8,GACCTCAC,0.0775
9,AGAGATCG,0.0698
10,GTTATTAA,0.0795
11,CCATCGCA,0.0764
12,GACATCGC,0.078
13,GTTTCGTA,0.0726
14,CTATGGTC,0.0719
15,ACTACATA,0.0838
16,ACCGAGAA,0.0735
17,AGACGGCA,0.0736
18,CATCTTGG,0.0746
19,AGAAAACA,0.0733
20,GAGAATCC,0.0727
21,CCGAGGAG,0.0685
22,ATAATTAA,0.081
23,CTATTAGC,0.074
24,GCATAGAC,0.0736
25,CCATTGCC,0.0742

row,Sequence,binding signal (normalized occupancy)
1,CCGCTCCG,0.0636
2,CTTACGAC,0.0712
3,AAGATTTG,0.0743
4,AGGTAGGG,0.0763
5,CCTGTCCA,0.0768
6,CTATCATC,0.0805
7,TCGACCGA,0.0661
8,ATAGTATC,0.0757
9,CCCCCGTA,0.0776
10,CGGACTGC,0.0673
11,CTACGTAA,0.0737
12,GAACTTTA,0.0689
13,CCACAGTC,0.071
14,CTTTCCTC,0.0743
15,TGTGACAA,0.0875
16,CCGAGATA,0.0699
17,GCAAGCCA,0.0722
18,AGTTGAGA,0.0744
19,AAGGCGCT,0.0679
20,ATTACATG,0.0934
21,GAGTAGCA,0.075
22,GTTCATTA,0.079
23,CCTTAGTA,0.0739
24,CGATCCTA,0.0792
25,AGAATGCC,0.075

row,Sequence,binding signal (normalized occupancy)
1,TATCGGCA,0.0743
2,AAGATAGG,0.0768
3,GAGGCTAA,0.0706
4,AGCGTCGA,0.0739
5,CTAACAAA,0.0751
6,CCACACAC,0.0837
7,ACGCACCC,0.0848
8,CTATCAGA,0.0804
9,ATGACCAA,0.0742
10,CCCGAACG,0.0704
11,GAACGATC,0.0784
12,GTCACAAA,0.0732
13,ATCCGGAA,0.0707
14,ACACTCGT,0.0776
15,GTACTATA,0.0835
16,AGACAACA,0.0786
17,CCAACACC,0.0724
18,AGGCATCA,0.0717
19,ACGAAACG,0.0766
20,ACAGTACC,0.075
21,ACCTTGCG,0.0745
22,AAGGAGGC,0.0691
23,AGGTTATG,0.0792
24,GCATCTCC,0.0715
25,AGAACGTG,0.1

row,Sequence,binding signal (normalized occupancy)
1,GCGGTGCA,0.0708
2,AGTCGGAA,0.0708
3,AGTTGCCA,0.0686
4,GGAAGTAA,0.0746
5,AGAATGAC,0.0746
6,GACCTTGC,0.0719
7,GACAGCGA,0.0666
8,ATCGTAGG,0.0753
9,AGACCACG,0.0888
10,GACTAGCA,0.0719
11,AGACCCGA,0.0742
12,CAGGCAGG,0.076
13,ATCCCCTA,0.0832
14,ATTACCAC,0.0824
15,AGTCGGAC,0.0684
16,CCTGCTCC,0.0763
17,ACATGAGC,0.0906
18,CGTTTTCC,0.0776
19,TAACCTCA,0.0782
20,CCAAAGTA,0.0715
21,ACTTTAAC,0.0746
22,ATATAGGC,0.0804
23,CTACGATC,0.0733
24,GCGTTATA,0.0833
25,ACAATAGC,0.0757

row,Sequence,binding signal (normalized occupancy)
1,ATCCGCCC,0.0753
2,ACGTGACT,0.0933
3,CTATCGCA,0.0749
4,ACAGGCTA,0.0747
5,ATGATAGG,0.0776
6,CTGAAATC,0.0754
7,ATCGATAA,0.0838
8,ACACCATC,0.0824
9,ATGCGCTA,0.0862
10,CGAACCAC,0.0771
11,AGCTAGCG,0.0689
12,CAGCAACG,0.0786
13,AAAAGAGC,0.0732
14,GGATAGCA,0.0805
15,AAACCTCA,0.0787
16,CATTCTTC,0.0745
17,AAAGTCAT,0.0813
18,GTGCAGCA,0.0808
19,ACTCGGAA,0.0704
20,ACACCTCA,0.0821
21,CATGCCCC,0.0965
22,AAAAAATA,0.0762
23,GGTACGGA,0.0731
24,AAAAAGTA,0.0775
25,GGTTGTAA,0.0812

row,Sequence,binding signal (normalized occupancy)
1,AAGAGTGG,0.0772
2,TTATACAA,0.0701
3,GGTACCTA,0.0718
4,AGGGCCTC,0.0701
5,GAACTTAA,0.0697
6,AACAACTA,0.073
7,TAGTTGAA,0.071
8,AGCTAGAC,0.0672
9,AAGTCGTC,0.0749
10,AACTACTG,0.0716
11,GCGTCGAA,0.0725
12,ATTCAATG,0.0799
13,ATGCAATA,0.0887
14,AGTGCCTA,0.0681
15,GTAGCAAA,0.0754
16,AGTCAATC,0.0756
17,AGATAACT,0.077
18,GCTGCAAC,0.0774
19,AAATCCGA,0.0705
20,CAAAATTG,0.0748
21,CGACCAAG,0.0687
22,ATCACGGA,0.0707
23,ACCGGGGC,0.0689
24,ATGCCAGG,0.0791
25,ACCTCCAG,0.0721

row,Sequence,binding signal (normalized occupancy)
1,GCTCTCCA,0.0729
2,CTTCGGTA,0.0698
3,ATTGTCCA,0.0749
4,GTTTAAGA,0.0713
5,ATCACCTC,0.0833
6,CCCGGGGA,0.0719
7,AAGCTAGC,0.0689
8,CGATAGCG,0.0747
9,ATCCCCCG,0.0843
10,GCCGAACC,0.0731
11,ACATAGCA,0.0807
12,ATACTAAT,0.0799
13,AACACCCC,0.0827
14,GAGCTCGC,0.069
15,CGAACACA,0.0775
16,GTGGGTGA,0.0842
17,AATTCGAA,0.0751
18,AGCAGAGC,0.0662
19,CGAGATCA,0.0751
20,GGACAAAC,0.077
21,AACTCCTA,0.0732
22,GAAAAGCC,0.0673
23,AAACATAC,0.0888
24,CAGCCCAG,0.0713
25,CATGAATG,0.0895

row,Sequence,binding signal (normalized occupancy)
1,GCGCTACA,0.0715
2,CACATGAA,0.104
3,CATACTCG,0.0813
4,GGCTGGAC,0.0689
5,ACTGGGTG,0.0784
6,CACGACCC,0.0825
7,CTCGCCGA,0.0701
8,ATCCCTTA,0.0721
9,CTATATAC,0.0879
10,ACCAATTA,0.074
11,AACTTTGT,0.0751
12,ATAAGATC,0.0786
13,AGTCCGCA,0.0691
14,CGCTAAAA,0.0765
15,ACCACAAG,0.0766
16,AACTTCCC,0.0735
17,AGTAGTTG,0.0722
18,AACAAGGT,0.0753
19,ATCGAGCA,0.0737
